# In the supplement of paper PMC10986608:
# The other results are listed elsewhere or left out. Most values come without repeats; read them as rough.
# Tested on: Candida albicans DPL-15
# Assay: growth (OD600) after compound treatment (apparently relative to screen median) (relative growth (fraction; screen median 1.02)); DPL-15 is a caspofungin-resistant clinical isolate; higher = more fungal growth (less antifungal activity)
# Settings: 25 µM; RPMI 1640; 48 h; 30 °C
row,Compound,growth
1,Cc1ccc(S(=O)(=O)N/N=C/c2cccc(C(=O)ON3C(=O)CCC3=O)c2)cc1,1.05
2,Cc1nn(C)c(C)c1Nc1cc(O)cc(O)c1C(=O)N1CC2CC2C1 (stereo not given),1.05
3,CC1=NCC(C)(C)NC2=C1C(c1ccc3c(c1)OCO3)NC2=O (stereo not given),0.976
4,COC(=O)C1=C(C)NC(=O)NC1c1cccs1 (stereo not given),1.15
5,CCCCCCCc1cc(C(F)(F)F)cc(CCCCCCC)n1,1.16
6,CC(C)(C)NS(=O)(=O)OCCCCCOCc1ccccc1,1.09
7,Cc1cc2c(nc1C)CCCN2C[C@@H]1CO1,1.04
8,COC(=O)C1=C(C)N(Cc2ccc(C(F)(F)F)cc2)C(NCCCOC(C)C)=NC1c1ccccc1 (stereo not given),0.89
9,COc1cc(O)c(C(C)=O)c(OC)c1,1.12
10,CC(C)C1=NCCNC2=C1C(c1cccc(C(F)(F)F)c1)N(c1ccccc1)C2=O (stereo not given),1.03
11,CC(=O)C1=C(C)N(Cc2ccc(Br)cc2)C(=S)NC1c1cccc(Br)c1 (stereo not given),0.919
12,CC(C)C1=NCCNC2=C1C(c1cccc(C(F)(F)F)c1)NC2=O (stereo not given),1.06
13,COC(=O)N[C@@H]1[C@@H](C)[C@H](OC)[C@]23C=CC=C[C@H]2[C@]13CCN(C(C)C)C(C)C,1.17
14,Cc1ccc(S(=O)(=O)N/N=C/c2cccc(C(=O)NCC(CC(=O)ON3C(=O)CCC3=O)c3ccccc3)c2)cc1 (stereo not given),1.04
15,CS(=O)(=O)Oc1c(C[C@@]23CCCCC2=Nc2cc(F)cc(F)c23)occc1=O,1.13
16,C[C@@H]1C=C(I)[C@@]2(CCCO)c3c(oc4ccccc34)-c3ccccc3[C@@H]12,0.75
17,COc1cc(OC)c2c(c1)N(C)[C@]1(c3ccc(Br)cc3)C(=O)[C@@]2(O)[C@H](c2ccccc2)[C@H]1c1ccccc1,1.06
18,C[C@@H]1/C=C/CC(=O)OCCCCC(=O)N[C@@H]1c1ccccc1,1.04
19,COc1ccc(N2C(=O)c3[nH]nc(CCC(C)C)c3C2c2ccc(F)cc2)cc1 (stereo not given),1.02
20,CC(=O)OC[C@H]1O[C@H](c2ccc(Br)cc2)C=C[C@@H]1OC(C)=O,0.861
21,COC(=O)C1=Cc2ccc(F)cc2[C@H](c2ccc(F)cc2)[C@H]1C(=O)OC,1.11
22,Cc1nn(C)c(C)c1Nc1cc(O)cc(O)c1C(=O)N1CCC(F)(F)C1,1.06
23,COC(=O)Cc1cc(O)cc(O)c1C(=O)OC,1.11
24,C=C(C)CC[C@H](Cc1c(O)cc(O)c2c1O[C@H](c1ccc(O)cc1)CC2=O)C(=C)C,0.902
25,CCOc1ccccc1C(=O)/C=C/c1ccc2ccccc2c1,0.987
26,CCn1cc(CCC(=O)NCc2ccc(O)c(OC)c2)nn1,1.02
27,C[C@H]1[C@@H]2C[C@@]3(O[C@H](C4CCNCC4)N=C3C[C@@H]1c1ccccc1)N(Cc1cccs1)C2=O,1.01
28,Cc1ccc(S(=O)(=O)n2c3c(c4ccccc42)[C@H](/C=C/c2ccccc2)[C@@H]([C@H](O)CBr)OC3)cc1,0.879

row,Compound,growth
1,CNC(=O)c1nnc(C(=O)OC)c2c1c1ccccc1n2S(=O)(=O)c1ccc(C)cc1,0.913
2,COc1ccc(N2C(=O)c3[nH]nc(CC(C)C)c3C2c2c(Cl)cccc2Cl)cn1 (stereo not given),0.939
3,COC(=O)C1=C(C)N(Cc2ccccc2C(F)(F)F)C(=S)NC1c1cccc(Br)c1 (stereo not given),1
4,CC1=NCCNC2=C1C(c1cccc(C(F)(F)F)c1)N(Cc1ccccc1)C2=O (stereo not given),0.996
5,CC(C)CCN(C(=O)OC(C)(C)C)S(=O)(=O)NC(C)(C)C,1.1
6,COc1ccc(S(=O)(=O)N2CCCc3nc(-c4ccccc4)ccc32)cc1,0.894
7,CCOC(=O)C1=CN(CCNC(=O)OC(C)(C)C)C(=O)NC1c1ccccc1 (stereo not given),1.07
8,CC(C)Cc1n[nH]c2c1[C@@H](c1ccc(F)cc1)N(c1ccc3ncnn3c1)C2=O,0.972
9,O=C(/C=C/c1ccccc1Br)c1ccccc1O,0.914
10,COC(=O)[C@]1([C@H]2CCC(=O)O2)CC(=O)c2c(ccc(Br)c2O)O1,1.21
11,CC(C)C1=NCC(C)(C)NC2=C1C(c1ccc(Br)cc1)N(Cc1ccccc1)C2=O (stereo not given),0.988
12,CC1(C)CN=C(c2ccccc2)C2=C(N1)C(=O)NC2c1ccccc1 (stereo not given),1.06
13,O=C1C[C@@H](c2ccccc2)[C@]2(c3ccc(Br)cc3)Oc3cc(F)cc(F)c3[C@]12O,1.22
14,COc1ccc(-c2cnnc(CCCn3ccnc3-c3ccccc3)n2)cc1,0.863
15,O=C(/C=C/c1ccc(OCc2ccccc2)cc1OCc1ccccc1)c1ccc(O)cc1O,1.14
16,CCOC(=O)c1cc(-c2c(Br)cc(OC)cc2OC)on1,1.11
17,COc1ccc(-c2ccc3c(n2)CCCN3S(=O)(=O)c2ccc(C#N)cc2)cc1,0.909
18,O=c1c2ccc(O)c(O)c2oc2cc(O)cc(O)c12,1.04
19,COC(=O)C1=C(C)N(Cc2ccccc2Cl)C(=S)NC1c1cccc(Br)c1 (stereo not given),0.897
20,CC1=NCCN(C)C2=C1C(c1ccc3c(c1)OCO3)NC2=O (stereo not given),1.02
21,CC(C)Cc1n[nH]c2c1C(c1cccc(C(F)(F)F)c1)N(c1ccc(F)cc1)C2=O (stereo not given),1.12
22,COc1ccc(N2C(=O)c3[nH]nc(CC(C)C)c3C2c2ccc(C)s2)cc1 (stereo not given),1.1
23,Cc1ccc(C2NC(=O)c3c2c(C)nn3-c2ccccc2)cc1 (stereo not given),1.16
24,N#CCN1Cc2cc(-c3ccccc3)c(-c3ccccc3)nc2C1,0.808
25,CC(=O)N[C@@H]1[C@@H](C)[C@H](OCc2ccccc2)[C@]23C=CC=C[C@H]2[C@]13CCN(C(C)C)C(C)C,1.31
26,COCc1nn(Cc2ccccc2)c2c1C(c1ccccc1)NC2=O (stereo not given),0.927
27,COCc1n[nH]c2c1C(c1ccccc1)N(Cc1ccccc1)C2=O (stereo not given),0.947
